The target of assay [1] is HA-C-terminally truncated Cdk6 (Cdk6 ΔC) (mouse) (UniProt Q64261). The assay is described as follows: co-IP; anti-HA magnetic beads on extracts of Cdk6, Cdk6 ΔC and Cdk6-/- p185 BCR-ABL+ cell lines; partners detected by immunoblot; Cdk6-/- cells as negative control. On the technique in general: Immunoblotting shows a protein as a band on a membrane.
The target in assay [2] is full length HA-tagged Cdk6 (mouse) (UniProt Q64261). The description is as above.
The target of the next assay is Cdk6 ΔC-F[1] (mouse) (UniProt Q64261). The assay is described as follows: split reporter; Renilla luciferase protein-fragment complementation assay (Rluc-PCA) in intact HEK293T cells, 48 h after transfection; bioluminescence (RLU) after benzyl-coelenterazine; also with co-expressed p16^INK4a-flag.
Another assay concerns the target Cdk6-F[1] (mouse) (UniProt Q64261). The assay is described as above.

Amino acid sequences for entries named in this document (tags omitted). A change or cut given only in a name is not applied to a line headed by its entry. Residues count along the entry.
UniProt Q64261: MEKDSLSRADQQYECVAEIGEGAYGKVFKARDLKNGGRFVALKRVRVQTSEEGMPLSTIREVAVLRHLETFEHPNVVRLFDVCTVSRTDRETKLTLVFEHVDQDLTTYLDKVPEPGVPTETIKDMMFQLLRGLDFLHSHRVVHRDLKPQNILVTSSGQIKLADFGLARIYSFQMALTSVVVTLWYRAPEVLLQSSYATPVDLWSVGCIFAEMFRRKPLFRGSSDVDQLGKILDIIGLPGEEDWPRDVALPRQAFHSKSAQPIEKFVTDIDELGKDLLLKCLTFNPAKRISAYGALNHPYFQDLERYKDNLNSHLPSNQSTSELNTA
HA-C-terminally truncated Cdk6 (Cdk6 ΔC): residues 1-294 of Q64261
UniProt P46414: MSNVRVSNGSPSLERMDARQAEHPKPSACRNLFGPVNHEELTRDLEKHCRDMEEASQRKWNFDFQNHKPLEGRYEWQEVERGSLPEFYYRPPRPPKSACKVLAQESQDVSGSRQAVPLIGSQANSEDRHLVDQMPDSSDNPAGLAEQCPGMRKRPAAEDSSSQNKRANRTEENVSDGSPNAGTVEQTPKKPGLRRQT
UniProt Q60772: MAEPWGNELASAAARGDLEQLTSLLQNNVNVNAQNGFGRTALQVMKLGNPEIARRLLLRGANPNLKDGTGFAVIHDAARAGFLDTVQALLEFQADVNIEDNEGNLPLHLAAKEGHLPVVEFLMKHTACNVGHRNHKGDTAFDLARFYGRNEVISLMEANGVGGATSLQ

Results are given in words; binding and its absence hold for the method and conditions named. In cells and extracts the contact can be indirect. Some binding calls cover weakened binding; strength is not graded here.

For p27^Kip1 (from UniProt P46414 1-197), the binding entry is given as “no binding” in assay [1] and “binds” in assay [2].
The like results for p18^INK4c (from UniProt Q60772 1-168) were, in that order, “no binding” and “binds”.

B1: cyclin D3 (protein, UniProt P30282 1-292)
chain: MELLCCEGTRHAPRAGPDPRLLGDQRVLQSLLRLEERYVPRASYFQCVQKEIKPHMRKMLAYWMLEVCEEQRCEEDVFPLAMNYLDRYLSCVPTRKAQLQLLGTVCLLLASKLRETTPLTIEKLCIYTDQAVAPWQLREWEVLVLGKLKWDLAAVIAHDFLALILHRLSLPSDRQALVKKHAQTFLALCATDYTFAMYPPSMIATGSIGAAVLGLGACSMSADELTELLAGITGTEVDCLRACQEQIEAALRESLREAAQTAPSPVPKAPRGSSSQGPSQTSTPTDVTAIHL
Regarding B1, the results for the binding result in assay [1] and in assay [2] were “no binding” and “binds”, respectively.

B2: p16^INK4a-F[2] (protein, UniProt P51480 1-168)
chain: MESAADRLARAAAQGRVHDVRALLEAGVSPNAPNSFGRTPIQVMMMGNVHVAALLLNYGADSNCEDPTTFSRPVHDAAREGFLDTLVVLHGSGARLDVRDAWGRLPLDLAQERGHQDIVRYLRSAGCSLCSAGWSLCTAGNVAQTDGHSFSSSTPRALELRGQSQEQS
On to B2, for which the binding result with Cdk6 ΔC-F[1] (mouse) was “no binding”; with Cdk6-F[1] (mouse), “binds”.

B3: p16^INK4a (protein, UniProt P51480 1-168)
chain: B2 chain
B3: the results for the binding entry in assay [1] and in assay [2] were “no binding” and “binds”, respectively.

B4: p19^INK4d (protein, UniProt Q60773 1-166)
chain: MLLEEVCVGDRLSGAAARGDVQEVRRLLHRELVHPDALNRFGKTALQVMMFGSPAVALELLKQGASPNVQDASGTSPVHDAARTGFLDTLKVLVEHGADVNALDSTGSLPIHLAIREGHSSVVSFLAPESDLHHRDASGLTPLELARQRGAQNLMDILQGHMMIPM
For the molecule B4, the results for the binding entry in assay [1] and in assay [2] were “no binding” and “binds”, respectively.
